{"source": "the supplement of paper PMC8728848", "binders": {"B1": {"name": "ArathEULS3 (Arabidopsis thaliana), Q945P1 (protein)", "chain": "MEHHHQHHRHHQRDDGEDDRQSFGVPPPHVDAPPQPHGLYQSQPHFDPYAPTPQAPAPYRSETQFEPHAPPPYRSEPYFETPAPPPSFGHVSHVGHQSPNESYPPEHHRYGGYQQPSNSLLESHGDHSGVTHVAHHSSNQPQSSSGVYHKPDENRLPDNLAGLAGRATVKVYSKAEPNYNLTIRDGKVILAPADPSDEAQHWYKDEKYSTKVKDADGHPCFALVNKATGEAMKHSVGATHPVHLIRYVPDKLDESVLWTESKDFGDGYRTIRMVNNTRLNVDAYHGDSKSGGVRDGTTIVLWDWNKGDNQLWKIFPFILEQKLISEEDLNSAVDHHHHHH"}}, "assay_in_all_cases": "glycan array binding signal (z-score within array); higher = stronger binding", "settings_in_all_cases": "glycan notation: IUPAC condensed, linker removed", "key": {"[1]": {"molecular_target": "Fuc(a1-2)[GalNAc(a1-3)]Gal(b1-4)GlcNAc(b1-3)Gal(b1-4)GlcNAc", "method_in_brief": "(§1)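 Negative Z-scores can be read as non-binding. The Z-score is calculated within each array and then averaged across arrays of one protein sequence at different concentrations or buffers and across linkers. Arrays, 3228 in all, were curated from the Consortium for Functional Glycomics database and kept only where the protein sequence was available.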"}, "[2]": {"molecular_target": "Fuc(a1-2)[GalNAc(a1-3)]Gal(b1-4)GlcNAc(b1-3)Gal(b1-4)GlcNAc(b1-3)Gal(b1-4)GlcNAc", "method_in_brief": "as §1"}, "[3]": {"molecular_target": "Fuc(a1-2)[GalNAc(a1-3)]Gal(b1-4)GlcNAc(b1-3)GalNAc", "method_in_brief": "as §1"}, "[4]": {"molecular_target": "Fuc(a1-2)[GalNAc(a1-3)]Gal(b1-4)[Fuc(a1-3)]GlcNAc", "method_in_brief": "as §1"}, "[5]": {"molecular_target": "Fuc(a1-2)[GalNAc(a1-3)]Gal(b1-4)[Fuc(a1-3)]GlcNAc(b1-3)GalNAc", "method_in_brief": "as §1"}, "[6]": {"molecular_target": "Fuc(a1-2)[GalNAc(a1-4)]Gal(b1-4)GlcNAc", "method_in_brief": "as §1"}, "[7]": {"molecular_target": "Fuc(a1-2)[GalNAc(b1-3)]Gal", "method_in_brief": "as §1"}, "Fuc(a1-3)GlcNAc": {"molecular_target": "Fuc(a1-3)GlcNAc", "method_in_brief": "as §1"}, "[8]": {"molecular_target": "Fuc(a1-3)[Gal(b1-4)]Glc6S", "method_in_brief": "as §1"}, "[9]": {"molecular_target": "Fuc(a1-3)[Gal(b1-4)]GlcNAc", "method_in_brief": "as §1"}, "[10]": {"molecular_target": "Fuc(a1-3)[Gal(b1-4)]GlcNAc(b1-2)Man", "method_in_brief": "as §1"}, "[11]": {"molecular_target": "Fuc(a1-3)[Gal(b1-4)]GlcNAc(b1-2)Man(a1-3)[Fuc(a1-3)[Gal(b1-4)]GlcNAc(b1-2)Man(a1-6)]Man(b1-4)GlcNAc(b1-4)GlcNAc", "method_in_brief": "as §1"}, "[12]": {"molecular_target": "Fuc(a1-3)[Gal(b1-4)]GlcNAc(b1-2)Man(a1-3)[Fuc(a1-3)[Gal(b1-4)]GlcNAc(b1-2)Man(a1-6)]Man(b1-4)GlcNAc(b1-4)[Fuc(a1-6)]GlcNAc", "method_in_brief": "as §1"}, "[13]": {"molecular_target": "Fuc(a1-3)[Gal(b1-4)]GlcNAc(b1-3)Gal(b1-3)[Fuc(a1-4)]GlcNAc", "method_in_brief": "as §1"}, "[14]": {"molecular_target": "Fuc(a1-3)[Gal(b1-4)]GlcNAc(b1-3)GalNAc", "method_in_brief": "as §1"}, "[15]": {"molecular_target": "Fuc(a1-3)[Gal(b1-4)]GlcNAc(b1-4)Gal(b1-4)[Fuc(a1-3)]GlcNAc", "method_in_brief": "as §1"}, "[16]": {"molecular_target": "Fuc(a1-3)[Gal(b1-4)]GlcNAc(b1-4)Gal(b1-4)[Fuc(a1-3)]GlcNAc(b1-4)Gal(b1-4)[Fuc(a1-3)]GlcNAc", "method_in_brief": "as §1"}, "[17]": {"molecular_target": "Fuc(a1-3)[Gal(b1-4)]GlcNAc(b1-6)GalNAc", "method_in_brief": "as §1"}, "[18]": {"molecular_target": "Fuc(a1-3)[Gal(b1-4)]GlcNAc(b1-6)[Gal(b1-3)GlcNAc(b1-3)]Gal(b1-4)Glc", "method_in_brief": "as §1"}, "[19]": {"molecular_target": "Fuc(a1-3)[Gal(b1-4)]GlcNAc(b1-6)[Neu5Ac(a2-3)Gal(b1-3)]GalNAc", "method_in_brief": "as §1"}, "[20]": {"molecular_target": "Fuc(a1-3)[Gal(b1-4)]GlcNAc6S", "method_in_brief": "as §1"}, "[21]": {"molecular_target": "Fuc(a1-3)[Gal3S(b1-4)]GlcNAc", "method_in_brief": "as §1"}, "[22]": {"molecular_target": "Fuc(a1-3)[Gal3S(b1-4)]GlcNAc6S", "method_in_brief": "as §1"}, "[23]": {"molecular_target": "Fuc(a1-3)[GalNAc(b1-4)]GlcNAc", "method_in_brief": "as §1"}, "[24]": {"molecular_target": "Fuc(a1-3)[GalNAc(b1-4)]GlcNAc6S", "method_in_brief": "as §1"}, "[25]": {"molecular_target": "Fuc(a1-3)[GalNAc3S(b1-4)]GlcNAc", "method_in_brief": "as §1"}, "Fuc(a1-4)GlcNAc": {"molecular_target": "Fuc(a1-4)GlcNAc", "method_in_brief": "as §1"}, "Fuc(b1-3)GlcNAc": {"molecular_target": "Fuc(b1-3)GlcNAc", "method_in_brief": "as §1"}, "Gal(a1-2)Gal": {"molecular_target": "Gal(a1-2)Gal", "method_in_brief": "as §1"}, "Gal(a1-3)Gal": {"molecular_target": "Gal(a1-3)Gal", "method_in_brief": "as §1"}, "Gal(a1-3)Gal(b1-3)GlcNAc": {"molecular_target": "Gal(a1-3)Gal(b1-3)GlcNAc", "method_in_brief": "as §1"}, "[26]": {"molecular_target": "Gal(a1-3)Gal(b1-3)GlcNAc(b1-2)Man(a1-3)[Gal(a1-3)Gal(b1-3)GlcNAc(b1-2)Man(a1-6)]Man(b1-4)GlcNAc(b1-4)GlcNAc", "method_in_brief": "as §1"}, "[27]": {"molecular_target": "Gal(a1-3)Gal(b1-3)GlcNAc(b1-3)GalNAc", "method_in_brief": "as §1"}, "[28]": {"molecular_target": "Gal(a1-3)Gal(b1-3)GlcNAc(b1-6)GalNAc", "method_in_brief": "as §1"}, "[29]": {"molecular_target": "Gal(a1-3)Gal(b1-3)[Fuc(a1-4)]GlcNAc(b1-2)Man(a1-3)[Gal(a1-3)Gal(b1-3)[Fuc(a1-4)]GlcNAc(b1-2)Man(a1-6)]Man(b1-4)GlcNAc(b1-4)GlcNAc", "method_in_brief": "as §1"}, "Gal(a1-3)Gal(b1-4)Glc": {"molecular_target": "Gal(a1-3)Gal(b1-4)Glc", "method_in_brief": "as §1"}, "Gal(a1-3)Gal(b1-4)GlcNAc": {"molecular_target": "Gal(a1-3)Gal(b1-4)GlcNAc", "method_in_brief": "as §1"}, "[30]": {"molecular_target": "Gal(a1-3)Gal(b1-4)GlcNAc(b1-3)GalNAc", "method_in_brief": "as §1"}, "[31]": {"molecular_target": "Gal(a1-3)Gal(b1-4)GlcNAc(b1-6)GalNAc", "method_in_brief": "as §1"}, "[32]": {"molecular_target": "Gal(a1-3)Gal(b1-4)[Fuc(a1-3)]GlcNAc", "method_in_brief": "as §1"}, "[33]": {"molecular_target": "Gal(a1-3)Gal(b1-4)[Fuc(a1-3)]GlcNAc(b1-2)Man(a1-3)[Gal(a1-3)Gal(b1-4)[Fuc(a1-3)]GlcNAc(b1-2)Man(a1-6)]Man(b1-4)GlcNAc(b1-4)GlcNAc", "method_in_brief": "as §1"}, "Gal(a1-3)GalNAc": {"molecular_target": "Gal(a1-3)GalNAc", "method_in_brief": "as §1"}, "[34]": {"molecular_target": "Gal(a1-3)[Gal(a1-4)]Gal(b1-4)GlcNAc", "method_in_brief": "as §1"}, "[35]": {"molecular_target": "Gal(a1-4)Gal(b1-3)GlcNAc(b1-2)Man(a1-3)[Gal(a1-4)Gal(b1-3)GlcNAc(b1-2)Man(a1-6)]Man(b1-4)GlcNAc(b1-4)GlcNAc", "method_in_brief": "as §1"}, "Gal(a1-4)Gal(b1-4)Glc": {"molecular_target": "Gal(a1-4)Gal(b1-4)Glc", "method_in_brief": "as §1"}}, "note": "The list shows a part of the results."}
{"binder": "B1", "values": [{"measurement": "glycan array binding signal (z-score)", "setting": "[1]", "value": -0.112}, {"measurement": "glycan array binding signal (z-score)", "setting": "[2]", "value": -0.168}, {"measurement": "glycan array binding signal (z-score)", "setting": "[3]", "value": -0.012}, {"measurement": "glycan array binding signal (z-score)", "setting": "[4]", "value": -0.293}, {"measurement": "glycan array binding signal (z-score)", "setting": "[5]", "value": 7.35}, {"measurement": "glycan array binding signal (z-score)", "setting": "[6]", "value": -0.267}, {"measurement": "glycan array binding signal (z-score)", "setting": "[7]", "value": -0.14}, {"measurement": "glycan array binding signal (z-score)", "setting": "Fuc(a1-3)GlcNAc", "value": -0.165}, {"measurement": "glycan array binding signal (z-score)", "setting": "[8]", "value": -0.202}, {"measurement": "glycan array binding signal (z-score)", "setting": "[9]", "value": -0.284}, {"measurement": "glycan array binding signal (z-score)", "setting": "[10]", "value": -0.038}, {"measurement": "glycan array binding signal (z-score)", "setting": "[11]", "value": -0.258}, {"measurement": "glycan array binding signal (z-score)", "setting": "[12]", "value": -0.168}, {"measurement": "glycan array binding signal (z-score)", "setting": "[13]", "value": 0.096}, {"measurement": "glycan array binding signal (z-score)", "setting": "[14]", "value": -0.125}, {"measurement": "glycan array binding signal (z-score)", "setting": "[15]", "value": -0.194}, {"measurement": "glycan array binding signal (z-score)", "setting": "[16]", "value": 1.15}, {"measurement": "glycan array binding signal (z-score)", "setting": "[17]", "value": 0.939}, {"measurement": "glycan array binding signal (z-score)", "setting": "[18]", "value": -0.174}, {"measurement": "glycan array binding signal (z-score)", "setting": "[19]", "value": 0.65}, {"measurement": "glycan array binding signal (z-score)", "setting": "[20]", "value": 0.041}, {"measurement": "glycan array binding signal (z-score)", "setting": "[21]", "value": -0.26}, {"measurement": "glycan array binding signal (z-score)", "setting": "[22]", "value": 0.59}, {"measurement": "glycan array binding signal (z-score)", "setting": "[23]", "value": -0.04}, {"measurement": "glycan array binding signal (z-score)", "setting": "[24]", "value": -0.175}, {"measurement": "glycan array binding signal (z-score)", "setting": "[25]", "value": 0.524}, {"measurement": "glycan array binding signal (z-score)", "setting": "Fuc(a1-4)GlcNAc", "value": -0.064}, {"measurement": "glycan array binding signal (z-score)", "setting": "Fuc(b1-3)GlcNAc", "value": -0.231}, {"measurement": "glycan array binding signal (z-score)", "setting": "Gal(a1-2)Gal", "value": -0.248}, {"measurement": "glycan array binding signal (z-score)", "setting": "Gal(a1-3)Gal", "value": -0.332}, {"measurement": "glycan array binding signal (z-score)", "setting": "Gal(a1-3)Gal(b1-3)GlcNAc", "value": -0.312}, {"measurement": "glycan array binding signal (z-score)", "setting": "[26]", "value": 4.38}, {"measurement": "glycan array binding signal (z-score)", "setting": "[27]", "value": -0.252}, {"measurement": "glycan array binding signal (z-score)", "setting": "[28]", "value": -0.092}, {"measurement": "glycan array binding signal (z-score)", "setting": "[29]", "value": 0.898}, {"measurement": "glycan array binding signal (z-score)", "setting": "Gal(a1-3)Gal(b1-4)Glc", "value": -0.335}, {"measurement": "glycan array binding signal (z-score)", "setting": "Gal(a1-3)Gal(b1-4)GlcNAc", "value": -0.183}, {"measurement": "glycan array binding signal (z-score)", "setting": "[30]", "value": -0.382}, {"measurement": "glycan array binding signal (z-score)", "setting": "[31]", "value": -0.163}, {"measurement": "glycan array binding signal (z-score)", "setting": "[32]", "value": -0.236}, {"measurement": "glycan array binding signal (z-score)", "setting": "[33]", "value": 0.658}, {"measurement": "glycan array binding signal (z-score)", "setting": "Gal(a1-3)GalNAc", "value": -0.22}, {"measurement": "glycan array binding signal (z-score)", "setting": "[34]", "value": -0.208}, {"measurement": "glycan array binding signal (z-score)", "setting": "[35]", "value": -0.203}, {"measurement": "glycan array binding signal (z-score)", "setting": "Gal(a1-4)Gal(b1-4)Glc", "value": -0.332}]}
